# Source: PubChem BioAssay AID1508624 (National Center for Advancing Translational Sciences (NCATS), 2021)
# Out of some 48,000 compounds screened, about 120 (0.25%) were called active. The shares of active, inactive and inconclusive entries below differ from those in the screen. Calls follow the shape of the dose curve; as a rule, active = well fitted activation curve with a large enough effect; inconclusive = small, poorly fitted or top-dose-only effect, or another doubt; inactive = no such curve, though single readings can be large or run the other way. Where the call is inconclusive, the potency comes from a doubtful curve fit.
# Assay: Primary qHTS for Identification of Small Molecule Activators of Huntingtin-Antisense Promoter Activity; also: nearly all actives have a fitted effect of over 55% in size
# Conditions: HEK293 HTT-AS promoter firefly luciferase reporter, 24 h; activity change, positive = activation: at 57.5 µM (top of the series), percent change from vehicle, -100% = no light unless noted
# In short: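 HEK293 cells carrying firefly luciferase reporters were seeded at 2,500 per well in Opti-MEM and cultured for 24 h. They were then treated with compounds at up to 57.5 uM final for 24 h at 37 degrees C before Dual-Glo luminescence readout.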
# Potency is read from the fitted curve at half-maximal effect; tags tell the direction and shape of the fitted curve.
Structure (SMILES),Potency,"activity change, positive = activation"
COc1ccc2c(c1)NC(c1cccnc1)=NC(c1ccc(F)cc1)=N2,"inconclusive: 7.08 µM [activator, partial curve]",
CC(=O)N1CCc2cc(S(=O)(=O)NC(Cc3ccccc3)C(=O)Nc3ccc(Cl)cc3)ccc21 (stereo not given),inactive,
CCOc1ccccc1NC(=O)Cn1c2ncccc2c(=O)n1-c1ccc(C)c(C)c1,,inconclusive: -17.1% [activator]
CCc1ccc2nc(N3CCN(C(=O)C4CC4)CC3)sc2c1,"inconclusive: 3.98 µM [activator, partial curve, poor fit]",
COc1cccc(C2=CC(c3ccccc3F)n3c(nc4ccccc43)N2)c1 (stereo not given),"inconclusive: 1.78 µM [activator, partial curve, poor fit]",
CC(C)(C)C1CCC(CC2=C(O)c3ccccc3C(=O)C2=O)CC1 (stereo not given),inactive,
O=C(NCc1ccccc1)c1ccc2c(c1)nc1n2CCCCC1,"inconclusive: 1.58 µM [activator, partial curve, poor fit]",
CCN(CC)c1ccc(NC(=O)CN2C(=O)c3cccnc3Sc3ccccc32)c(C)c1,"inconclusive: 14.1 µM [activator, partial curve, poor fit]",
CCOC(=O)c1cc(S(=O)(=O)N2CCN(c3ccc(F)cc3)CC2)[nH]n1,,inconclusive: -31.8% [activator]
Cc1ccc(NC(=O)CN2C(=O)C3(SCC(=O)N3c3ccc(F)c(F)c3)c3ccccc32)c(C)c1 (stereo not given),,inconclusive: -18.4% [activator]
O=C(O)C[C@H](O)C[C@H](O)C=Cc1c(C2CC2)nc2ccccc2c1-c1ccc(F)cc1,inactive,
Cc1nc(N)ncc1-c1nc(N2CCOCC2)c2sc(C(C)(C)O)cc2n1,inactive,
COc1cc(NC(=O)c2ncn(-c3ccccc3)n2)cc(OC)c1,"inconclusive: 14.1 µM [activator, partial curve, poor fit]",
Cc1ccc(NC(=O)c2nc(-c3ccncc3)no2)c(Cl)c1,"inconclusive: 1.78 µM [activator, full curve, poor fit]",
O=C(COc1ccc(Cl)cc1)NCCc1csc(-c2cccc(F)c2)n1,inactive,
N#C/C(=C\c1ccc(-c2ccc(C(=O)O)cc2)o1)c1nc2ccccc2[nH]1,"inconclusive: 1.12 µM [activator, full curve, poor fit]",
CCOC(=O)c1cc(-c2ccc(OC)cc2)nn1Cc1ccccc1,"inconclusive: 3.55 µM [activator, full curve]",
CCCCNC(=O)c1sc2ncccc2c1-n1cccc1,"inconclusive: 12.6 µM [activator, partial curve]",
C=CC[N+]1([C@H]2C[C@H]3[C@@H]4CC[C@H]5C[C@H](OC(C)=O)[C@@H](N6CCCCC6)C[C@]5(C)[C@H]4CC[C@]3(C)[C@H]2OC(=O)CC)CCCCC1,inactive,
Cc1ccc(-c2nnc3ccccc3c2C(=O)Nc2ccc(F)cc2)cc1,"inconclusive: 15.8 µM [activator, partial curve, poor fit]",
Cc1ccn2c(Nc3ccccc3)c(-c3c[nH]c4ccccc34)nc2c1,"inconclusive: 1.26 µM [activator, full curve, poor fit]",
COc1cc2c(cc1OC)CN(C(=O)[C@H](C)N[C@@H](CCc1ccccc1)C(=O)O)[C@H](C(=O)O)C2,inactive,

Structure (SMILES),Potency,"activity change, positive = activation"
Cc1ccc(-c2nnc(SCc3ccccc3)o2)cc1,"inconclusive: 3.98 µM [activator, full curve]",
CCOc1ccccc1NC(=O)Cn1c(=O)nc(-c2ccccc2F)c2cc(Cl)ccc21,"inconclusive: 0.447 µM [activator, full curve, poor fit]",
COc1ccc(OCc2nc3ccccc3n2Cc2ccc(C(C)(C)C)cc2)cc1,"inconclusive: 1.58 µM [activator, partial curve, poor fit]",
CCOc1ccccc1NC(=O)CN1C(=O)CC(c2ccc(C)c(C)c2)=Nc2ccccc21,"inconclusive: 3.55 µM [activator, full curve]",
CCOc1ccc(NC(=O)c2ccc3c(=O)n4c(nc3c2)CCCCC4)cc1,inactive,
O=S(=O)(c1ccccc1)n1nc(-c2ccco2)nc1NCc1ccccc1,active: 12.6 µM,
CCC(Nc1ccc(-c2nc(-c3ccccn3)no2)cc1[N+](=O)[O-])c1ccccc1 (stereo not given),"inconclusive: 15.8 µM [activator, single point]",
COc1cc(CN(C(=O)COc2ccccc2)c2ccccn2)cc(OC)c1OC,inactive,
CCc1ccc(S(=O)(=O)c2nnn3c2nc(N(CC)Cc2ccccc2)c2cc(Cl)ccc23)cc1,inactive,
Clc1cccc(Nc2ncnc3c2nc2n3CCCCC2)c1,"inconclusive: 1.41 µM [activator, partial curve, poor fit]",
CN1CCN(c2cc3c(nn2)Oc2ccccc2N3C)CC1,"inconclusive: 6.31 µM [activator, partial curve, poor fit]",
Cc1ccc(C(=O)Nc2cnc3ccccn3c2=O)cc1,"inconclusive: 2 µM [activator, full curve, poor fit]",
COc1cccc2cc(C(=O)Nc3ccc(C)cc3)c(=O)oc12,"inconclusive: 3.16 µM [activator, partial curve, poor fit]",
Cc1ccc(-n2ncc3c(NCCCN(C)C)ncnc32)cc1Cl,"inconclusive: 2.24 µM [activator, partial curve, poor fit]",
COc1ccccc1NC(=O)c1ncn(-c2ccccc2)n1,"inconclusive: 12.6 µM [activator, partial curve]",
Oc1ccc(OCc2ccccc2)cc1,"inconclusive: 31.6 µM [activator, single point]",
CC(C)(C)c1[nH]cnc1C=c1[nH]c(=O)c(=Cc2ccccc2)[nH]c1=O,"inconclusive: 1.4 µM [activator, full curve]",
COc1ccc(NCc2cc3ccc(OC)cc3n(CC(=O)Nc3ccc(C)c(C)c3)c2=O)cc1,,inconclusive: 35.7% [activator]
Cc1ccccc1Nc1c(-c2c[nH]c3ccccc23)nc2ccc(Cl)cn12,"inconclusive: 8.91 µM [activator, partial curve, poor fit]",
COC(=O)c1c(C)oc2ccc(N(C(=O)c3ccncc3)S(=O)(=O)c3ccc(Br)cc3)cc12,inactive,
Cc1ccc(C(=O)Nc2c(C(=O)Nc3ccc(C)c(C)c3)sc3nc(C)cc(C)c23)cc1,"inconclusive: 1.78 µM [activator, partial curve, poor fit]",
COc1ccc(-c2cc3nc(C)c(CCC(=O)Nc4ccccc4C(C)=O)c(C)n3n2)c(OC)c1,inactive,

Structure (SMILES),Potency,"activity change, positive = activation"
O=C(CSCc1cccc(F)c1)NCc1ccccc1,"inconclusive: 14.1 µM [activator, partial curve]",
NC(=O)c1ccccc1NC(=O)c1ccc(-c2ccc(Br)cc2)o1,"inconclusive: 2.24 µM [activator, partial curve, poor fit]",
Cc1cc2ccccc2n1-c1ccc(C(=O)N2CCC(C(=O)NCc3ccc(Cl)cc3)CC2)s1,inactive,
COc1ccc(-c2cc(C(=O)OC(C)C(=O)c3ccccc3)c3cccc(Cl)c3n2)cc1 (stereo not given),"inconclusive: 4.47 µM [activator, partial curve]",
c1ccc(Nc2c(-c3c[nH]c4ccccc34)nc3ccccn23)cc1,"inconclusive: 1.78 µM [activator, full curve, poor fit]",
CC(C)CCOC(=O)c1ccc(N(C)C)cc1,"inconclusive: 39.8 µM [activator, single point]",
COc1cc2cc(CNc3ccc(C)cc3)c(=O)n(CC(=O)Nc3ccc(F)cc3F)c2cc1OC,"inconclusive: 17.8 µM [activator, partial curve, poor fit]",
COc1ccccc1OC(C)C(=O)Nc1ccc(-c2nc3ccccc3s2)cc1 (stereo not given),"inconclusive: 0.891 µM [activator, full curve]",
Cc1ccc(NC(=O)Nc2ccc3snnc3c2)cc1C,inactive,
CC(C)Oc1ccc(C(=O)N(Cc2ccco2)c2ccccn2)cc1,"inconclusive: 2.24 µM [activator, full curve]",
COc1ccccc1/C=C/c1nc(C#N)c(N(C)C)o1,"inconclusive: 1.78 µM [activator, full curve]",
CCC(Sc1nncn2c1cc1occc12)C(=O)Nc1ccc(C)c(Cl)c1 (stereo not given),,inconclusive: 36.8% [activator]
CCOc1ccc(OCC)c(NC(=O)CN(C)S(=O)(=O)c2ccc3c(c2)CCCC(=O)N3)c1,inactive,
CC(NC(=O)CCSCc1ccccc1F)c1ccccc1 (stereo not given),"inconclusive: 15.8 µM [activator, partial curve]",
O=C(CSc1nccn1Cc1ccc(F)cc1)Nc1ccc2c(c1)OCCO2,"inconclusive: 11.2 µM [activator, partial curve]",
Cc1nc(CC(=O)Nc2ccc(N(C)C)cc2)cs1,"inconclusive: 11.2 µM [activator, partial curve]",
COc1cc(C2CC(=O)c3c([nH]c(C(=O)OC4CCCCC4)c3C)C2)cc(OC)c1OC (stereo not given),inactive,
Cc1ccc(C)c(N2CCN(C(=O)c3cccc(-n4c(C)nc5cccnc54)c3)CC2)c1,inactive,
Cc1cc2nn(-c3ccc(Cl)cc3)nc2cc1NC(=O)C(C)C,,inconclusive: -79.7% [activator]
CCc1cc(C(=O)Nc2cnn(Cc3ccc(F)cc3)c2)no1,"inconclusive: 10 µM [activator, partial curve]",
COc1ccc(NC(=O)c2cccc(N3CCCS3(=O)=O)c2)cc1,"inconclusive: 2.82 µM [activator, full curve]",
